One molecule from article PMC6366758 (2019) can be followed below.

One assay concerns the target RSHZ19. As to the kind of experiment: SPR. A general note: In SPR one partner is held on a chip, and binding of the other changes the refractive index at the surface.
The target of a further assay is R1.42. As to the kind of experiment: SPR.

As a reminder, the Kd is the constant that tells how readily two partners part at equilibrium. For orientation: koff means a measure of how fast the partners let go of each other. Lower therefore signals slow dissociation.

B1: Post-fusion F (other)
chain 1: not shown
chain 2: not shown
As for B1, in the assay with RSHZ19, binding was characterised by a dissociation constant (Kd) of 0.08 nM and the off-rate constant (koff) is 1e-05 s⁻¹. In the assay with R1.42, this molecule gave a dissociation constant (Kd) of 0.11 nM and a koff of 3.26e-05 s⁻¹.
